# From paper PMC4336329 (PLoS ONE, 2015)
# Out of some 310,000 compounds screened, about 2,200 (0.71%) showed an effect of 50% or more. Effects have a minus sign here. The list shows a part of the results.
# Biological target: human ether-à-go-go-related gene (hERG) potassium channel (human, UniProt Q12809)
# Experiment: primary screen, population patch clamp on CHO cells stably expressing hERG
# Chain of human ether-à-go-go-related gene (hERG) potassium channel (Q12809 whole entry, looked up): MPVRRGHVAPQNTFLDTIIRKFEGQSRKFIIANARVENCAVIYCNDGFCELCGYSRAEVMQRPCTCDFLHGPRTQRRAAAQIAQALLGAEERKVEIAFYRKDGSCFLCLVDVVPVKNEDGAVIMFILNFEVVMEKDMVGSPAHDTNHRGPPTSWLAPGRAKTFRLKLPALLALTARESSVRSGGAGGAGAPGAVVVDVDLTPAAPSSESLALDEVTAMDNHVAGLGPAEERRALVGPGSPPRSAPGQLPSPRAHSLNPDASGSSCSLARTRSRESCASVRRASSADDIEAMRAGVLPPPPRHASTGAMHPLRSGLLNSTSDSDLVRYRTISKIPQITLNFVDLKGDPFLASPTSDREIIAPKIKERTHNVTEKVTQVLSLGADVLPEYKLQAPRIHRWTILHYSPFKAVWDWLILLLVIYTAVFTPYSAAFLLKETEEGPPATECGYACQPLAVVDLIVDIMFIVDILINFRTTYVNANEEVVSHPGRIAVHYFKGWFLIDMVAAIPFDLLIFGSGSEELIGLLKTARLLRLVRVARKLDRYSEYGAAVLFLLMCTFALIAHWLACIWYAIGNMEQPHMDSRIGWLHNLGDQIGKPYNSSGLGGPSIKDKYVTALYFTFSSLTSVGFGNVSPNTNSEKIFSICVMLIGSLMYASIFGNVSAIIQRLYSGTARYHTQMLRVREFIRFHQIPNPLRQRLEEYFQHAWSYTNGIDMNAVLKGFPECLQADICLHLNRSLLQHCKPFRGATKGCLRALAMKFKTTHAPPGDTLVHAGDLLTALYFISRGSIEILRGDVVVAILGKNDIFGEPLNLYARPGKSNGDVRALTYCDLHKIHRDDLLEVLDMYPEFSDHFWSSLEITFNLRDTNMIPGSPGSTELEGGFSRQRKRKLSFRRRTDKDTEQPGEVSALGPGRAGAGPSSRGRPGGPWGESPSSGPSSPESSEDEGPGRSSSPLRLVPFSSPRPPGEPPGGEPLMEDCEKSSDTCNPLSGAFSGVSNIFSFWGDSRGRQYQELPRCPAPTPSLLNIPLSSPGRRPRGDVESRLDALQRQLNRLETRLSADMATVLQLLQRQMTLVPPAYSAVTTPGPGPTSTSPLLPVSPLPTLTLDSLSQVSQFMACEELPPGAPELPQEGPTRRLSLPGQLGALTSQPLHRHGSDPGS
row,SMILES,"hERG current change (%, negative = inhibition) at 1uM [%]"
1,COc1ccc([N+](=O)[O-])cc1N(CC(O)CN(C)C)S(=O)(=O)c1ccc(C)cc1 (stereo not shown),-9.26
2,Cc1ccc(NC(=S)N(Cc2ccccc2)Cc2cccs2)c(C)c1,7.07
3,O=c1c2ccccc2nc(/C=C/c2ccco2)n1-c1ccccc1O,-9.72
4,CC(=O)Nc1ccc(S(=O)(=O)NCC2CCC(C(=O)N3CC(C)CC(C)C3)CC2)cc1 (stereo not shown),11.7
5,COc1cc(N)c(Br)cc1C(=O)O,9.63
6,Cc1cc(C)n(CC(=O)c2ccc(Cl)cc2)n1,1.92
7,NC(=O)NOCc1c(F)cccc1Cl,19.3
8,CN1CCN(C(=O)/C(=C\c2cccs2)NC(=O)c2ccccc2)CC1,-78.3
9,Cn1c(CNC(=O)CNC(=O)Cc2ccc(F)cc2)cc(=O)n(C)c1=O,17.7
10,CCCCOc1ccc(C(=O)NCC(=O)NCCOc2ccc(C)cc2)cc1,4.59
11,Cc1nc2ccccc2c(=O)n1NC(=O)c1ccc(Cl)c([N+](=O)[O-])c1,-2.19
12,O=C(COc1coc(CN2CCc3ccccc3C2)cc1=O)Nc1cccc([N+](=O)[O-])c1,8.33
13,CC[C@H]1OC(=O)[C@H](C)[C@@H](O[C@H]2C[C@@](C)(OC)[C@@H](O)[C@H](C)O2)[C@H](C)[C@@H](O[C@@H]2O[C@H](C)C[C@H](N(C)C)[C@H]2O)[C@](C)(O)C[C@@H](C)CN(C)[C@H](C)[C@@H](O)[C@]1(C)O,6.28
14,COc1ccc(C(=O)Nc2ccccc2C(=O)NC(Cc2ccc(O)cc2)C(=O)NNC(=O)c2ccncc2)cc1 (stereo not shown),9.21
15,CCc1nc(SCc2ccc(Br)cc2)n[nH]1,12.7
16,Cc1ccsc1C(=O)Nc1ccc(C(=O)O)cc1,0.214
17,CCCn1c(SCC(N)=O)nnc1C(C)C,12.8
18,COc1ccc(C2C(C(=O)NCC3CCCO3)CCC(=O)N2c2ccc3c(c2)OCO3)cc1 (stereo not shown),7.84
19,Nc1ccc(Cc2nc3c(ccc4ccccc43)[nH]2)cc1,0.194
20,CCOC(=O)CNC(=O)N1CCc2ccc(NC(=O)c3ccccc3Cl)cc2C1,9.15
21,CC(=O)OC(C(=O)NC1CCCCC1)c1ccc(Cl)cc1 (stereo not shown),13.9
22,O=C(CCc1nc2ccccc2c(=O)[nH]1)Nc1cc(C(F)(F)F)ccc1N1CCOCC1,3.13
23,CCOc1ccc(C(=O)NCC(=O)OCC(=O)Nc2cccc(S(=O)(=O)N3CCCC3)c2)cc1,8.1
24,O=C(COC(=O)/C=C/c1ccc([N+](=O)[O-])cc1)NC(c1ccccc1)c1ccccc1,0.898
25,Cc1c(-c2ccccc2)[nH]n2c(=O)c3c(nc12)CCCC3,4.19
26,O=C(COc1ccccc1)Nc1ccc(CN2CCCCC2)cc1,3.49
27,CCN(c1ccccc1)c1nc2nonc2nc1NCCO,13.4
28,Cc1cc(NC(=O)c2cc(C(C)C)on2)no1,0.819

row,SMILES,"hERG current change (%, negative = inhibition) at 1uM [%]"
1,CCc1noc(C)c1C(=O)Nc1cc(S(=O)(=O)N(CC)CC)ccc1N1CCCC1,-7.11
2,O=C(Nc1ccc(F)cc1)C1CCCCC1,3.09
3,COc1ccc(C2=C(Nc3ccc(F)cc3)c3ccccc3C2=O)cc1,13
4,CC(C(=O)Nc1ccccc1-c1ccccc1)N1CCN(C(=O)c2ccccc2)CC1 (stereo not shown),-34.4
5,COc1ccccc1N(C)S(=O)(=O)c1ccc(C(=O)NC(C)c2ccccc2)cc1 (stereo not shown),8.1
6,NC(N)=Nc1nc2cc([N+](=O)[O-])ccc2o1,10.7
7,CCCCOC(=O)n1c(=S)oc2cc(Cl)ccc21,9.47
8,COc1cc(NC(=O)CN(C)S(=O)(=O)c2ccc3nc(C)sc3c2)cc(OC)c1,29.4
9,CCOc1cc(S(=O)(=O)Nc2ncn[nH]2)ccc1Br,14.8
10,CC(C)(C)c1ccc(-c2noc(CCC(=O)Nc3cccnc3)n2)cc1,17.8
11,COc1cc(CNc2ccc3[nH]c(=O)[nH]c3c2)cc(Br)c1OCc1ccc(F)cc1,18.3
12,CCC1=Nc2cc(C(=O)N3CCC4(CC3)OCCO4)ccc2Sc2ccc(C)cc21,10.5
13,Cc1ccsc1/C=N/NC(=O)C(O)c1ccccc1 (stereo not shown),17
14,CN(C)S(=O)(=O)c1cc(NC(=O)CN2CCOCC2)ccc1Cl,16.1
15,CN(C)CCCNC(=S)NCCNc1nc2cc3c(cc2cc1C#N)OCO3,-14.9
16,CCOC(=O)c1sc(NC(=O)C(CC)Sc2nnc3c4ccccc4n(CC)c3n2)nc1C (stereo not shown),-4.01
17,O=C(CSc1ccc(Cl)cc1)NC(=O)NCc1ccco1,5.53
18,COc1cc(/C=N/NC(=O)C2c3ccccc3Oc3ccccc32)ccc1O,8.49
19,COc1ccc(C(=O)COC(=O)c2cncc(Br)c2)cc1,10.3
20,N=c1c(C(=O)NCC2CCCO2)cc2c(=O)n3ccccc3nc2n1C1CCCCC1 (stereo not shown),-79.2
21,CC(=O)c1c(C)nc(-c2ccc(OCC(=O)Nc3ccc(F)cc3)cc2)n1O,3.16
22,O=C1CN(C(=O)COc2ccccc2F)c2ccccc2N1,10.1
23,Nc1cc(C(=O)N2CCCC2)cc(C(=O)N2CCCC2)c1,16
24,O=C(Nc1ccccc1)c1cccnc1N1CCCC1,6.81
25,CCN(CCCNC(=O)C1CCC(=O)N1C(C)C)c1cccc(C)c1 (stereo not shown),-1.36
26,COc1ccccc1N1CC(O)=C(c2nc3ccccc3c(=O)[nH]2)C1=N,8.4
27,C=CCSc1nc2[nH]ncc2c(=O)[nH]1,9.73
